These results are taken from the RNAGym collection of RNA variant scans (doi:10.1073/pnas.2313332121).

This sample is rich in variants without activity.

To fix the notation:
B1: TPR 5TU (parent)
chain: GGAUCUUCUCGAUCUAACAAAAAAGACAAAUCUGCCACAAAGCUUGAGAGCAUCUUCGGAUGCAGAGGCGGCAGCCUUCGGUGGCGCGAUAGCGCCAACGUUCUCAACUAUGACACGCAAAACGCGUGCUCCGUUGAAUGGAGUUUAUCAUG

This data set covers variants of B1. As to the kind of experiment: polymerase ribozyme fitness, log enrichment relative to wild type (log ratio); higher = more active; in vitro selection for triplet polymerase activity. A digest of the protocol: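 For each subunit of a heterodimeric triplet polymerase ribozyme, a mutant library was built by PCR and transcribed, then taken through a single in vitro selection round in triplicate. Selection involved annealing to a biotinylated primer, the partner subunit and triplets, incubation frozen at −7 °C, gel excision of extended constructs, capture on streptavidin beads and RT-PCR. Genotypes were retained after Illumina sequencing of inputs and outputs only with ≥10 input reads and ≥1 read in each output. Fitness is defined as the logarithm of a genotype's enrichment relative to wild-type enrichment, using inverse-variance-weighted averages across replicates, with the logarithm taken to base 2.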
Take GGAUCUUCUCGAUCUAACAAAAAAGACAAAUCUGCCACAAAGCUAGAGAGCAUCUUCGGAUGCAGAGGCGGCAGCCUUAGGUGGCGCGAUAGCGCCAACGUUCUCAACUAUGACACGCAAAACGCGUGCUCCGUUGAAUGGAGUUUAUCAUG [U45A C79A]: the “polymerase ribozyme fitness (log ratio)” value is not above -4.2. In the case of GGAUCUUCUCGAUCUAACAAAAAAGACAAAUCUGCCACAAAGCUAGAGAGCAUCUUCGGAUGCAGAGGCGGCAGCUUUCGGUGGCGCGAUAGUGCCAACGUUCACAACUAUGACACGCGAAACGCGUGCUCCGUUGAAUGGAGUUUUUCAUG [U45A C76U C93U U104A A119G A147U], the “polymerase ribozyme fitness (log ratio)” value is not above -4.2. To GGAUCUUCUCGAUCUAACAAAAAAGACAAAUCUGCCACAAAGCGUGAGAGCAUCAUCGGAUGCAGAGGCGGCAGCCUUCGGUGGCGCGAGAGCGCCAACUUUCUCAACUAUGACACGCAAAACGCGUACUCCGUUGAAUGGAGUUUAUCAUG [U44G U55A U90G G100U G128A] belongs not above -4.2; to GGAUCUUCUCGAUCUAACAAAAAAGACAAAUCUGCCACAAAGCGUGAGAGCAUCUUCGGAGGCAGAGGCGGCAGCCUUCGGUGGCGCGAUAGCGCCAACGUUCUCAACUAUGACACGCAAAACGCGUGCUCCGUUGAAUGGAGUUUAUCAUG [U44G U61G], not above -4.2; to GGAUCUUCUCGAUCUAACAAAAAAGACAAAUCUGCCACAAAGCUAGAGAGCAUCUUCGGAUGCAGAGGCGGCAGCCUUCGGUGGCGCGAUAGCGCUAACGUUCUCAACUAUGACACGCAAAACGCGUGCUCCGUUGAAUAGAGUUUAUCAUG [U45A C96U G140A], not above -4.2.

GGAUCUUCUCGAUCUAACAAAAAAGACAAAUCUGCCACAAAGCUAGAGAGUAUCUUCGGAUGCAGAGGCGGCAGCCUUCGGUGGCGCGAUAUCGCCAACGUUCUCAACUAUGAUACGCAAAACGCGUGCUCCGUUGAAUGGCGUUUAUCAUG [U45A C51U G92U C114U A142C]: the “polymerase ribozyme fitness (log ratio)” value was not above -4.2. To GGAUCUUCUCGAUCUAACAAAAAAGACAAAUCUGCCACAAAGCUAGCGAGCAUCUUCGGAUGCAGAGGCGGCAGCCUUCGGUGGCGCGAUAGCGCCAACGUUCUCAACUAUGACACGCAAAACGCGUGCUCCGUUGAAUGUAGUUUAUCAUG [U45A A47C G141U] belongs not above -4.2; to GGAUCUUCUCGAUCUAACAAAAAAGACAAAUCUGCCACAAAGCUAGAGAGCAUCUUUGGAUGCAGAGGCGGCAGCCUUCGGUGGCGCGAUAGGGCCAACGUUCUCAACUAUGACACGCAAAACGCGUGCUGCCUUGAAUGGAGUUUAUCAUG [U45A C57U C93G C131G G133C], not above -4.2. To GGAUCUUCUCGAUCUAACAAAAAAGACAAAUCUGCCACAAAGCUAGAGAGCAUCUUCGGAUGCAGAGGCGGCAGCCUUCGGUGGCGCGAUAGCGCCAAGGUUCUCAACUAUGACACGCAAAUCGCGUGCUCCGUCGAAUGGAGUUUAUCAUG [U45A C99G A122U U135C] belongs not above -4.2; to GGAUCUUCUCGAUCUAACAAAAAAGACAAAUCUGCCACAAAGCUAGUGAGCAUCUUCGGAUGCAGAGGCGGCAGCCGUCGGUGGCGCGAUAGCGCCAACGUUCUCAACUAUGAGACGCAAAUCGCGUGCUCCGUUGAAUGGAGUUUAUCAUG [U45A A47U U77G C114G A122U], not above -4.2; to GGAUCUUCUCGAUCUAACAAAAAAGACAAAUCUGCCACAAAGCUAGAGAGCAUCUUCGGAUGCAGAGGCGGCAGCCUUCGGUGGAGCGAUAGCGCCAACGUUCUCAACUAUGACACGUAAAACGCGUGAUCCGUUGCAUGGAGUUUAUCAUG [U45A C85A C118U C129A A137C], not above -4.2.

GGAUCUUCUCGAUCUAACAAAAAAGACAAAUCUGCCACAAAGCUAGAGAGCAUCUUCGGAUGCAGAGGCGGCUGCCUUCCGUGGCGCGAUAGCGUCAACGUUCUCAACUAUGACACGCAAAAUGCGUGUUCCGUUGAAUGGAGUUUAUCAUG [U45A A73U G80C C95U C123U C129U]: the “polymerase ribozyme fitness (log ratio)” value was not above -4.2. To GGAUCUUCUCGAUCUAACAAAAAAGACAAAUCUGCCACAAAGCUAGAGCGCAUCUUCGGAAGCAAAGGCGGCAGCCUUCGGUGGCGCCAUAGCGCCAACGUUCUCAACUAUGACACGCAAAACGCGUGCUCCGUUGAAUGGAGUUUAUCAUG [U45A A49C U61A G65A G88C] belongs not above -4.2. Under GGAUCUUCUCGAUCUAACAAAAAAGACAAAUCUGCCACAAAGCUAGAGAGCCUCUUCGGAUGCAUAGGUGGCAGCCUUCGGUGGUGCGAUAGCGCCAACGUUCUCAACAAUGACACGCAAGACGCGUGCUCCGUUGAAUGGAGUGUAUCAUG [U45A A52C G65U C69U C85U U109A A121G U145G] stands not above -4.2; under GGAUCUUCUCGAUCUAACAAAAAAGACAAAUCUGCCACAAAGCUAGAGAGCAUCUUCGGGUGCAGAGGCGGCAGCCUUCGGUGGCGCGAUAGCGCCAACGUUCUCAACUAUGACACGCAAAACGCGUGCUCCGUUGAAUGGAGUUUAUCAUG [U45A A60G], -2.47. To GGAUCUUCUCGAUCUAACAAAAAAGACAAAUCUGCCACAAAGCUAGAGAGCAUCUUCGGAUGCUGACGCGGCAACCUUCGGUAGCGCGAUAGCGCCAACGUUCUCAACUAUGACACGCAGAACGCGUGCUCCGUUGAAUGGAGUUUAUCAUG [U45A A64U G67C G74A G83A A120G] belongs not above -4.2; to GGAUCUUCUCGAUCUAACAAAAAAGACAAAUCUGCCACAAAGCGUGAGAGCAUCUUCGGAUGCAGAGGCGGCAGCCUUCGGUGGCGCGAUAGCGCCAACGGUCUCAACUAUGACACGCAAAACGCGUGCUCCGUUGAAUGGAGUUCAUCUUG [U44G U101G U146C A150U], not above -4.2; to GGAUCUUCUCGAUCUAACAAAAAAGACAAAUCUGCCACAAAGCGUGAGAGCAUCUUCGGAUGCAGAGGCGGCAGCCUUCGGUGGCGCGAUAGCGCCAACGUUCUCAACUAUGACACGCAAAACGCGUGCUCCGUUGAAUGGAGUUUACCAUG [U44G U148C], not above -4.2. In the case of GGAUCUUCUCGAUCUAACAAAAAAGACAAAUCUGCCACAAAGCUAGAGAGCAUCUUAGGAUGCAGAGGCGGCAGCCUUCGGUGGCGCGAUAGCGUCAACGUUCUCAACUAUGACACGCAAAACGCGUGCUCCGUUGAAUGGAGUUUAUCAUG [U45A C57A C95U], the “polymerase ribozyme fitness (log ratio)” value was -2.12.
